Assay results published in the supplement of paper PMC10126150.
Sequences with one replicate were seen in a single cluster, so their values are uncertain.

tested on: ATP; experiment: switch fluorescence ratio, 500 uM ATP over buffer (Cy3 cluster intensity, sum of 5 cycles each) (fold (ratio)); higher = stronger signal-on switching upon ATP binding; sequences stand for … in TCGTCGGCAGCGTCAGATGTGTATAAGAGACAGTTTTTTTTTTTTTTTTTTTTTTTTT…TC; conditions: aptamer strand: ATP DNA aptamer (quencher-CACCTGGGGGAGTATTGCGGAGGAAGG + anchor), 100 nM annealed; ATP concentration: 500 uM; one replicate
How it was run: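 The fluorescence ratio divides summed target-cycle Cy3 intensity by summed buffer-cycle Cy3 intensity for each cluster and is averaged per switch-domain sequence. Cy3-labelled switching-strand clusters on a modified Illumina MiSeq flow-cell were annealed to 100 nM quencher-labelled ATP aptamer, then imaged in selection buffer and again after 15 min with 500 uM ATP at 22 °C. Five such cycles were run, with NaOH stripping and re-annealing between them, and clusters outside 100-1000 RFU were excluded.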
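Further: ATP exposure 15 min at 22 °C before imaging.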

Row | Sequence | switch fluorescence ratio
1 | ATGGTGTATG | 0.988
2 | ATGTAAACTC | 0.944
3 | ATGTAACATT | 0.98
4 | ATGTAATAAC | 1.01
5 | ATGTACGCAT | 1.12
6 | ATGTACTCTC | 1.1
7 | ATGTAGACGT | 1
8 | ATGTAGAGAA | 1.02
9 | ATGTAGTAAC | 0.994
10 | ATGTATAGC | 0.984
11 | ATGTATCGAG | 1.04
12 | ATGTATGGAA | 1.01
13 | ATGTATGGC | 1.05
14 | ATGTATGTTC | 0.959
15 | ATGTCAACCG | 1.03
16 | ATGTCATCAT | 0.997
17 | ATGTCGGCGT | 1.05
18 | ATGTCGGGA | 0.995
19 | ATGTCTATTT | 0.954
20 | ATGTCTCAG | 0.979
21 | ATGTGACCCG | 0.979
22 | ATGTGCAACT | 1.02
23 | ATGTGCCCCG | 0.982
24 | ATGTGCGTG | 0.958
25 | ATGTGCGTTT | 1.05
26 | ATGTGGCAGT | 1.02

Row | Sequence | switch fluorescence ratio
27 | ATGTGGCGCG | 1.04
28 | ATGTGGCGG | 0.977
29 | ATGTGGGGTC | 0.948
30 | ATGTGGTAAA | 1.02
31 | ATGTGTACTG | 0.992
32 | ATGTTACTAT | 1
33 | ATGTTAGGAG | 1.01
34 | ATGTTAGGTC | 0.969
35 | ATGTTATAAT | 0.986
36 | ATGTTCAT | 1.03
37 | ATGTTCCTTC | 1.02
38 | ATGTTCGC | 1.03
39 | ATGTTGAACG | 1.02
40 | ATGTTGAAGA | 0.961
41 | ATGTTGACGG | 0.977
42 | ATGTTGATAG | 1.03
43 | ATGTTGTCAC | 1.01
44 | ATGTTTAAGA | 1.01
45 | ATGTTTGGTC | 0.987
46 | ATTAAAAGGC | 0.989
47 | ATTAAACCTG | 1.29
48 | ATTAAAGGCA | 1.02
49 | ATTAAATCAT | 0.997
50 | ATTAAATTA | 0.988
51 | ATTAACACAC | 1.42
52 | ATTAACGGGA | 1.04

Row | Sequence | switch fluorescence ratio
53 | ATTAACTAAC | 1.12
54 | ATTAAGTATG | 0.967
55 | ATTACAAGAT | 0.967
56 | ATTACAAGCA | 1.02
57 | ATTACAATTT | 0.97
58 | ATTACATTCA | 1.02
59 | ATTACATTGA | 1.05
60 | ATTACCGTCG | 1.04
61 | ATTACTCGTG | 0.975
62 | ATTACTTAA | 1.01
63 | ATTACTTT | 1.03
64 | ATTAGAGACC | 1.03
65 | ATTAGATTC | 0.99
66 | ATTAGATTCG | 1
67 | ATTAGCCTCT | 0.953
68 | ATTAGCGATT | 1.06
69 | ATTAGCTACG | 0.993
70 | ATTAGCTTGG | 0.988
71 | ATTAGGACTG | 1.02
72 | ATTAGGTAAG | 1.03
73 | ATTAGTCACG | 1.04
74 | ATTAGTCCG | 1.04
75 | ATTAGTTCT | 1.03
76 | ATTAGTTTGG | 0.996
77 | ATTATAACTT | 1.01
78 | ATTATAAGCA | 1.01

Row | Sequence | switch fluorescence ratio
79 | ATTATACTC | 1.1
80 | ATTATAGCGA | 0.898
81 | ATTATATCA | 0.945
82 | ATTATATTTT | 0.971
83 | ATTATCGTCT | 1.02
84 | ATTATGTGC | 1
85 | ATTATGTGG | 0.988
86 | ATTATTCTGC | 1.04
87 | ATTCAAATCC | 1.06
88 | ATTCAATAAT | 1.02
89 | ATTCACCAGT | 1.06
90 | ATTCACTTGT | 1.04
91 | ATTCATGGAC | 0.986
92 | ATTCCACTCG | 1.08
93 | ATTCCAGACA | 0.978
94 | ATTCCAGTGT | 1.02
95 | ATTCCATAGT | 0.983
96 | ATTCCATCTG | 1.01
97 | ATTCCGGTAG | 1.08
98 | ATTCGAAACC | 3.33
99 | ATTCGCAAC | 3.96
100 | ATTCGCGGCG | 0.986
101 | ATTCGGTGA | 0.999
102 | ATTCGTACGG | 0.966
103 | ATTCGTGTA | 0.985
104 | ATTCTAACG | 0.96

Row | Sequence | switch fluorescence ratio
105 | ATTCTATAGG | 0.959
106 | ATTCTCAAAA | 0.971
107 | ATTCTCCGGT | 1.13
108 | ATTCTGTATG | 0.998
109 | ATTCTTATCC | 1.08
110 | ATTCTTATGA | 0.966
111 | ATTCTTGGAC | 0.979
112 | ATTCTTTCGG | 0.973
113 | ATTGAAGTCC | 1.02
114 | ATTGACCTGA | 1.07
115 | ATTGAGAAA | 1.02
116 | ATTGAGAATT | 0.994
117 | ATTGAGCC | 1.01
118 | ATTGAGGAGC | 1.06
119 | ATTGAGTAGG | 1.02
120 | ATTGAGTAGT | 1.01
121 | ATTGATAGAT | 0.996
122 | ATTGATGAGC | 1.04
123 | ATTGCAAGTG | 0.97
124 | ATTGCAATTG | 0.988
125 | ATTGCATTAT | 1
126 | ATTGCCCCGT | 1.04
127 | ATTGCCGCGA | 1.23
128 | ATTGCTAGTA | 0.984
129 | ATTGCTATAG | 1.04
130 | ATTGCTATGT | 0.958

Row | Sequence | switch fluorescence ratio
131 | ATTGCTATTT | 0.967
132 | ATTGCTGATA | 0.988
133 | ATTGCTGGTG | 1.11
134 | ATTGGAACAA | 0.916
135 | ATTGGACGTA | 1
136 | ATTGGATATA | 1.12
137 | ATTGGCCGGA | 1.02
138 | ATTGGCCTCT | 1.02
139 | ATTGGCTCGA | 0.988
140 | ATTGGCTGCG | 0.98
141 | ATTGGGAACA | 1.02
142 | ATTGTACCAT | 1.03
143 | ATTGTACTTT | 1.02
144 | ATTGTATCAA | 1.12
145 | ATTGTCCCTG | 1
146 | ATTGTCGAGC | 1.02
147 | ATTGTCTCTC | 1.04
148 | ATTGTCTCTT | 1.02
149 | ATTGTGCCCC | 0.99
150 | ATTGTGGACA | 0.973
151 | ATTGTGTCGT | 0.978
152 | ATTGTGTTAT | 0.996
153 | ATTGTT | 0.945
154 | ATTGTTCAT | 1.04
155 | ATTGTTCGAC | 1.02
156 | ATTGTTTTAT | 1.01

Row | Sequence | switch fluorescence ratio
157 | ATTTAAACGC | 1.02
158 | ATTTAACGAC | 0.994
159 | ATTTAAGGTC | 0.95
160 | ATTTAATTTG | 1.01
161 | ATTTACAGTC | 1.02
162 | ATTTACAGTG | 1.11
163 | ATTTACCCGC | 1.1
164 | ATTTACGTCC | 1.07
165 | ATTTACTTCC | 1.59
166 | ATTTAGAGA | 1.03
167 | ATTTAGATAG | 0.984
168 | ATTTAGCAGT | 1.02
169 | ATTTATTCGG | 0.99
170 | ATTTCCAGGG | 1.52
171 | ATTTCCCTCG | 1.05
172 | ATTTCCGTCG | 1.04
173 | ATTTCGATTG | 0.993
174 | ATTTCGCGG | 1.06
175 | ATTTCTAAGA | 0.998
176 | ATTTCTCACG | 1.02
177 | ATTTCTTTTA | 0.979
178 | ATTTGAGACA | 1.07
179 | ATTTGATTCC | 1.06
180 | ATTTGCAAGG | 1
181 | ATTTGCAGAA | 0.994
182 | ATTTGCCTAC | 1.07

Row | Sequence | switch fluorescence ratio
183 | ATTTGGAATC | 1.02
184 | ATTTGGACGC | 1.17
185 | ATTTGGGAG | 0.976
186 | ATTTGGGGT | 1.02
187 | ATTTGTAAT | 1.02
188 | ATTTGTCTGC | 0.967
189 | ATTTTCAGA | 1.01
190 | ATTTTCGAAG | 1.01
191 | ATTTTCGGCC | 0.981
192 | ATTTTCTCGT | 1.01
193 | ATTTTTAATG | 0.99
194 | ATTTTTATGT | 1.2
195 | CAAAAAAGTA | 0.978
196 | CAAAAACCAC | 1.08
197 | CAAAAATGGT | 1.04
198 | CAAAACATGC | 1
199 | CAAAACCATC | 1.12
200 | CAAAACCCCG | 1.07
201 | CAAAACCTTC | 2.61
